Several values for one entry are separate records, joined by “and”; a condition that tells them apart may be missing. Equal values may be shown once. Out of some 48,000 compounds screened, about 1,200 (2.5%) were called active. Roughly 2% stayed inconclusive and do not appear here.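 Rule for the calls: active = activation of at least 60% and not above a set upper limit (about 1 call in 100 departs from these limits); inconclusive = activation of 40% to 60%, or above that upper limit; inactive = activation under 40%.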 Some of the results follow.
Molecular target: Probable G-protein coupled receptor 32 (Homo sapiens) (UniProt O75388)
UniProt O75388, sequence (O75388 whole entry, looked up): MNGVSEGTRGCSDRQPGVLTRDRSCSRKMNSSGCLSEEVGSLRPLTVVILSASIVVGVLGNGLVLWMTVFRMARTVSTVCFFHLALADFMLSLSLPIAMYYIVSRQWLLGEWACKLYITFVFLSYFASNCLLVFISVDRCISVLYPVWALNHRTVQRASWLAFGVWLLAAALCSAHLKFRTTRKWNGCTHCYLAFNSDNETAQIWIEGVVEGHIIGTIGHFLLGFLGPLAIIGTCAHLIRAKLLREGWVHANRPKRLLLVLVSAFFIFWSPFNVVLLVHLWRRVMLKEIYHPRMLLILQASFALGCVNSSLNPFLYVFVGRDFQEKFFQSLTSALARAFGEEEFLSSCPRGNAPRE
Assay: qHTS for Agonists of Human Resolvin D1 Receptor DRV1; note: 0% is about no effect
Conditions: CHO-K1 GPR32 beta-arrestin PathHunter luminescence, 90 min; at 76.9 µM; hits give high values; zero percent set by DMSO-only wells
Method in brief: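 Engineered CHO-K1 line co-expressing GPR32-ProLink and EA-beta-arrestin. Compound treatment lasted 90 min at 37 °C. Luminescence was recorded after 1 h with substrate at ambient temperature, relative to DMSO basal wells.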

activation, active:
Cc1ccc(C(=O)c2cn(Cc3c(F)cccc3Cl)c3nc(C)ccc3c2=O)cc1 82.2%
CCOc1ccc(Nc2oc(-c3ccc(COc4ccc(C)cc4)o3)nc2C#N)cc1 67.3%
COC(=O)c1ccc(NC(=O)CSc2nc3cc4ccccc4cc3[nH]2)cc1 93.7%
Cc1cccc(C)c1NC(=O)CN(C)S(=O)(=O)c1ccc2[nH]c3c(c2c1)CCCC3 62.3%
CC(C)c1ccc(NC(=O)Cn2c(=O)oc3cc(S(=O)(=O)N4CCCC4)ccc32)cc1 96.7%

activation, inactive:
O=C(Cn1c(=O)n(Cc2ccc(C(=O)NCc3ccc4c(c3)OCO4)cc2)c(=O)c2ccccc21)Nc1cccc(Cl)c1 -4.25%
O=C(O)c1cc(=O)c2ccccc2[nH]1 -1.69%
CC1=C(C(=O)Nc2cccc(C(F)(F)F)c2)C2(CCCCCC2)OC1=O -20.1%
CCCCc1nn2c(=O)cc(COC(=O)c3cccs3)nc2s1 17.2%
Cc1ccc(Cn2c(=O)n(Cc3ccccc3Cl)c(=O)c3cccnc32)cc1 -37.5%
CCNc1sc(S(C)(=O)=O)nc1S(=O)(=O)c1ccc(C)cc1 -17.5%
Cc1cc(C(=O)N2CCN(c3cc(Cl)ccc3C)CC2)c2c(C)nn(-c3ccccc3)c2n1 -10.7%
Cn1c(=O)n(C)c2cc(N3CCCC3)c(NC(=O)Nc3ccccc3)cc21 39.5%
Clc1cccc(-n2ncc3c(N4CCCCCC4)ncnc32)c1 0.497%
Cc1ccc(NC(=O)Cn2ncn3c(cc4ccccc43)c2=O)cc1C -5.37%
CCc1ccc(NC(=O)CCNC(=O)Cn2cnc3ccccc3c2=O)cc1 36%
Cc1ccc(CNC(=O)c2cccc(Nc3nc4ccccc4n4nnnc34)c2)cc1 -13.8%
Cc1ccc(N2CCN(c3nc4ccccc4c4nnc(C)n34)CC2)c(C)c1 -0.856%
COC(=O)c1ccccc1NC(=O)Cn1c(=O)n(CCCCC(=O)NCc2ccc3c(c2)OCO3)c(=O)c2ccccc21 -41.2%
COc1cc(OC)c(NC(=O)c2c(C)oc3ncnc(N4CCCCC4)c23)cc1Cl -15.7%
Cn1c(=O)c2c(nc(N3CCOCC3)n2Cc2ccccc2)n(C)c1=O 0.403%
CCOC(=O)c1c(C)[nH]c(C)c1S(=O)(=O)N(C)CC(=O)N1CCN(c2cccc(Cl)c2)CC1 33.7%
Cc1cccc(C)c1NC(=O)Cn1cc(S(=O)(=O)Cc2ccc(F)cc2)c2ccccc21 -20.7%
COc1ccc(C(=O)Nc2nnc(SCc3cc(=O)n4cc(Cl)ccc4n3)s2)cc1 -5.5%
Cc1cc(C)cc(NC(=O)Cn2c(=O)n(CC(=O)NCCc3ccccc3)c(=O)c3ccccc32)c1 48.5%
Cc1ccc(CNC(=O)CN2C(=O)COc3ccccc32)cc1 -5.96%
Cc1ccc(Cl)cc1NC(=O)c1ccc2nc(CCc3ccccc3)oc2c1 -2.73%
CCc1ccc(C(=O)Nc2cccc(-c3nc4cc(C(C)C)ccc4o3)c2)cc1 7.33%
CC(=O)c1cccc(NC(=O)Nc2cc3c(cc2N2CCCC2)n(C)c(=O)n3C)c1 -3.98%
Cc1ccc(-c2nc(CNC(=O)NC3CCCCC3)c(C)o2)cc1 -16.6%
COc1ccc(CNc2nc(-c3ccco3)nn2C(=O)c2ccccc2C)cc1 -16.9%
CCn1cc(C(=O)NCc2ccccc2Cl)c(=O)c2cc(S(=O)(=O)N3CCCCCC3)ccc21 -5.98%
CCCCC(=O)Nc1ccc(C(=O)OCc2cc(=O)n3ccsc3n2)cc1 3.03%
CSCC[C@H](NC(=O)[C@H](Cc1c[nH]c2ccccc12)NC(=O)CCNC(=O)OC(C)(C)C)C(=O)N[C@@H](CC(=O)O)C(=O)N[C@@H](Cc1ccccc1)C(N)=O 20.6%
O=S(=O)(c1ccccc1)c1nc(-c2ccco2)oc1SCc1ccc(F)cc1 -14.2%
COc1ccc(Cn2c(SCc3ccc(C(=O)NCc4cccs4)cc3)nc3ccncc32)cc1 5.15%
CCN(C(=O)c1cc(S(=O)(=O)N2CCCC2)cn1C)c1ccc(OC)cc1 -10.9%
COc1ccc(NC(=O)c2nnn(CC(=O)Nc3cc(C)cc(C)c3)c2N)c(OC)c1 3.39%
O=C(CSc1nnc(-c2ccc(Cl)cc2)c(-c2ccc(Cl)cc2)n1)NC1CCCC1 -16.2%
CCOC(=O)c1sc2cccc(F)c2c1S(=O)(=O)Nc1ccccc1F -10%
O=C(CCCn1c(=O)[nH]c2ccsc2c1=O)N1CCN(c2ccc(Cl)cc2)CC1 29.8%
Cc1ccc(C)c(NC(=O)Cn2c(=O)n(CC(=O)NCCc3ccccc3)c(=O)c3ccccc32)c1 11.1%
Cc1ccc(NC(=O)Cn2c(=O)cc(-c3ccccc3)c3c(C)nn(C)c32)c(Cl)c1 -1.91%
CCOCCCNC(=O)Cn1nc(CC)n2c(cc3c(OC)cccc32)c1=O -12.3%
N#Cc1ccccc1NC(=O)C(=O)NCC(c1cccnc1)N1CCc2ccccc21 (configuration not stated) -23.3%
COc1cc(OC)c(NC(=O)C(C)n2nc(-c3ccc(C)cc3)c3c(c2=O)CCCC3)cc1Cl (configuration not stated) 3.74%
O=C(Nc1cc(F)ccc1F)c1cnn2c(C(F)F)cc(-c3ccccc3)nc12 12.4%
CCOC(=O)CC(NC(=O)CCc1c(C)nc2cc(-c3ccccc3)nn2c1C)c1ccc(C)cc1 (configuration not stated) -1.53%
CC(C)NNC(=O)c1ccncc1 -15.9% and -5.66%
O=C(c1ccccc1)c1ccc2nc(N3CCN(c4ccc(F)cc4)CC3)c3nncn3c2c1 -43.2%
Cc1ccc(NC(=O)C2CCCN(c3ncnc4onc(C)c34)C2)cc1Cl (configuration not stated) 4.58%
COc1ccccc1-c1cc2nc(C)c(CCC(=O)NC3CCCCC3)c(C)n2n1 19.9%
Cc1ccc(S(=O)(=O)c2nnn3c2nc(N2CCN(c4cccc(C)c4C)CC2)c2ccccc23)cc1C 1.52%
CC(C)CCn1c(=O)c2sccc2n2c(CCCC(=O)Nc3ccc(C(C)C)cc3)nnc12 -13.8%
CCOC(=O)CC(NS(=O)(=O)c1cc(-c2cc(C)no2)ccc1C)c1ccc(C)cc1 (configuration not stated) 8.73%
COc1ccc(N2CCN(c3nc4ccccc4n4c(C)nnc34)CC2)cc1 -17.6%
CCOc1ccc2nc(NC(=O)c3nc(SCc4ccc(C)cc4)ncc3Cl)sc2c1 8.45%
CCOc1ccc(C(=O)Nc2ccc3nc4c(c(Nc5ccccc5OC)c3c2)CCCC4)cc1 -31.6%
O=C(CC1N=C2c3ccccc3N=C(SCC(=O)Nc3ccccc3F)N2C1=O)NCc1ccc2c(c1)OCO2 (configuration not stated) -23.8%
Cc1ccc2occ(CC(=O)Nc3c(C(=O)Nc4ccc(Cl)cc4)oc4ccccc34)c2c1 0.65%
CC(C)COc1ccc(C(=O)N2CCC(c3nc4ccccc4s3)CC2)cc1 -10.8%
Cc1ccc(CSc2nncn3c2cc2sccc23)cc1 -10.5%
CN(C(=O)CSc1nc2ccccc2[nH]1)c1ccc(F)cc1 -1.39%
COc1ccc(OC)c(S(=O)(=O)NCc2ccc3c(c2)CCN3C(=O)c2cccc(C)c2)c1 -18.4%
Cc1ccc(CSCCNC(=O)CN(c2cccc(C)c2C)S(=O)(=O)c2ccccc2)cc1 2.86%
COc1ccccc1NC(=O)C1=C(C)Nc2nc(SCC(=O)c3ccc(C)cc3)nn2C1c1ccc(F)cc1 (configuration not stated) 0.968%
O=C(NCc1ccc(Cl)cc1)c1cnc(N2CCOCC2)c2ccccc12 -2.4%
CCCOCc1cc(CN2CCN(c3ccccc3OC)CC2)c(O)c2ncccc12 11.6%
CCOC(=O)c1c(NC(=O)C(C)Sc2cn(CCNC(=O)c3ccc(OC)cc3)c3ccccc23)sc2c1CCC2 (configuration not stated) -6.06%
Cc1cccc(N2C(=O)N(Cc3ccc(C(C)(C)C)cc3)c3ccccc3S2(=O)=O)c1 -3.66%
COc1ccc(CNC(=O)c2ccc3c(c2)CCN3S(=O)(=O)c2ccccc2)cc1 -3.86%
CC1CCCN(S(=O)(=O)c2cc(C(=O)NCCc3ccccc3)n(C)c2)C1 (configuration not stated) 9.58%
COCCCOc1ccnc(CS(=O)c2nc3ccccc3[nH]2)c1C (configuration not stated) 11.1%
Cc1ccccc1CNC(=O)c1ccc(Cn2c(SCc3ccccc3)nc3cccnc32)cc1 -4.11%
Cc1noc2ncnc(N3CCCC(C(=O)Nc4cccc(C(F)(F)F)c4)C3)c12 (configuration not stated) 36.5%
CCc1ccc(NC(=O)c2ccc(F)c(S(=O)(=O)N3CCN(c4cc(C)ccc4C)CC3)c2)cc1 -16.9%
CCc1c(C)c(C#N)c2nc3ccccc3n2c1Nc1cccc(C(F)(F)F)c1 13.2%
Cc1cc(C)c2c(=O)c3c(oc2c1)C(=O)N(Cc1ccco1)C3c1ccccc1F (configuration not stated) -9.94%
COc1ccc(-c2nc(S(=O)(=O)c3ccc(C)cc3)c(NCc3ccccc3)o2)cc1 9.52%
Cn1cc(-c2cc3n(n2)CCC(=O)N3CCCC(=O)Nc2ccccc2F)c2ccccc21 4.73%
O=C1c2cccc(O)c2C(=O)c2c(O)cccc21 15.9%
Cc1c(C(=O)NCc2ccccc2Br)oc2ccc3c(c12)C(=O)CC(C)(C)O3 -31.1%
